Measured values published in the RNAGym collection of RNA variant scans (doi:10.7554/elife.90254).
The source gives no read counts; variants with many changes may rest on few reads.

B1: OR4K15 (parent)
chain: GUUAACGGUCAUAGGCCAUGGAAACUAGGAGCACCAUUUCGCUGCCAGUGAAGAAAUGAACAAAGAAAAUCUGGGCCAGGCAGGCAUCAAAAGAAAUAGUCUUGCGCUCAACCAGAAAGUCUGUAAUCAUUUUAAGGGUA

Variants of: B1
Test: self-cleavage, relative activity (ratio to wild type); higher = more cleavage; in vitro, sequencing; the parent is a self-cleaving ribozyme

| Variant | self-cleavage |
| --- | --- |
| GUUAACGGUCAUAGGCCAUGGAAACUAGGAGCACCAUUUCGCUGCCAGUGAAGAAAUGAACAAAGAAAAUCUGGGCCGGGCAGGCAUCAAAAGAAAUAGUCUUGCGCUCAACCAGAAAGUCCGUAGUCAUUUUAAGGGUA [A78G U122C A126G] | 0.06 |
| GUUAACGGUCAUAGGCCAUGGAAACUAGGAGCACCAUUUCGCUGCCAGUGAAGAAAUGAACAAAGAAAAUCUGGGCCUGGCAGGCAUCAAAAGAAAUAGUCUUGCGCUCAGCCAGAAGGUCUGUAAUCAUUUUAAGGGUA [A78U A111G A118G] | 0 |
| GUUAACGGUCAUAGGCCAUGGAAACUAGGAGCACCAUUUCGCUGCCAGUGAAGAAAUGAACAAAGAAAAUCUGGGCCAGGAAGGCACCAAAUGAAAUAGUCUUGCGCUCAACCAGAAAGUCUGUAAUCAUUUUAAGGGUA [C81A U87C A92U] | 0.24 |
| GUUAACGGUCAUAGGCCAUGGAAACUAGGAGCACCAUUUCGCUGCCAGUGAAGAAAUGAACAAAGAAAAUCUGGGCCAGGAAGGCAUCAGAAGAAAUAGUCUUGCGCUCAAUCAGAAAGUCUGUAAUCAUUUUAAGGGUA [C81A A90G C112U] | 0.02 |
| GUUAACGGUCAUAGGCCAUGGAAACUAGGAGCACCAUUUCGCUGCCAGUGAAGAAAUGAACAAAGAAAAUCUGGGCCUGGCAGGCAUCAAAAGAAAUAGUCUUGCGCUCAACCAGAAUGUCCGUAAUCAUUUUAAGGGUA [A78U A118U U122C] | 0.11 |
| GUUAACGGUCAUAGGCCAUGGAAACUAGGAGCACCAUUUCGCUGCCAGUGAAGAAAUGAACAAAGAAAAUCUGGGCCGGGCAGGCAUCAAAAGAAAUAGUCCUGCGCUCAACCAGAAUGUCUGUAAUCAUUUUAAGGGUA [A78G U102C A118U] | 0.16 |
| GUUAACGGUCAUAGGCCAUGGAAACUAGGAGCACCAUUUCGCUGCCAGUGAAGAAAUGAACAAAGAAAAUCUGGGCCUGGCAGGCAUCAAAAGAAAUAGUCUUGCGCUCAACCAGAAAGUCCGUAAUCAUUUUAAGGGCA [A78U U122C U139C] | 0.06 |
| GUUAACGGUCAUAGGCCAUGGAAACUAGGAGCACCAUUUCGCUGCCAGUGAAGAAAUGAACAAAGAAAAUCUGGGCCUGGCAGGCAUCAAAAGAAAUAGUCUUGCGCUCAACCAGAAAGUCUGUAAUCACUUUAAGGGUU [A78U U130C A140U] | 0.15 |
| GUUAACGGUCAUAGGCCAUGGAAACUAGGAGCACCAUUUCGCUGCCAGUGAAGAAAUGAACAAAGAAAAUCUGGGCCAGGAGGGCAUCAAUAGAAAUAGUCUUGCGCUCAACCAGAAAGUCUGUAAUCAUAUUAAGGGUA [C81A A82G A91U U131A] | 0.14 |
| GUUAACGGUCAUAGGCCAUGGAAACUAGGAGCACCAUUUCGCUGCCAGUGAAGAAAUGAACAAAGAAAAUCUGGGCCAGGUUGGCAUCAAAAGAAAUAGUCUUGCGCUCAACCCGACAGUCUGUAAUCAUUUUAAGGGUA [C81U A82U A114C A117C] | 0.02 |
| GUUAACGGUCAUAGGCCAUGGAAACUAGGAGCACCAUUUCGCUGCCAGUGAAGAAAUGAACAAAGAAAAUCUGGGCCAGGUAGGCAUCAAAAGAAACAGUCUUGCGCUCAACCAGAAAGUCUGUAAUCAUUUUAAGGGCA [C81U U97C U139C] | 0.31 |
| GUUAACGGUCAUAGGCCAUGGAAACUAGGAGCACCAUUUCGCUGCCAGUGAAGAAAUGAACAAAGAAAAUCUGGGCCAGACAGGCAUCAAAAGAAAUAGUCUUGCGCUCAACCAGAAGGUCUGUGAUCAUUUUAAGGGUA [G80A A118G A125G] | 0.02 |
| GUUAACGGUCAUAGGCCAUGGAAACUAGGAGCACCAUUUCGCUGCCAGUGAAGAAAUGAACAAAGAAAAUCUGGGCCUGGCAGGCAUCAAAAGGAAUAGUCGUGCGCUCAACCAGAAAGUCUGUAAUCAUUCUAAGGGUA [A78U A94G U102G U132C] | 0.05 |
| GUUAACGGUCAUAGGCCAUGGAAACUAGGAGCACCAUUUCGCUGCCAGUGAAGAAAUGAACAAAGAAAAUCUGGGCCUGGCAGGCACCAAAAGAAGUAGUAUUGCGCUCAACCAGAAAGUCUGUAAUCAUUUUAAGGGUA [A78U U87C A96G C101A] | 0.03 |
| GUUAACGGUCAUAGGCCAUGGAAACUAGGAGCACCAUUUCGCUGCCAGUGAAGAAAUGAACAAAGAAAAUCUGGGCCGGGCAGGCAUCAAAAGAAAUAGUCUUGCGCCCAACCAGAAAGUCUGUAGUCAUUUUAAGGGUA [A78G U108C A126G] | 0.01 |
| GUUAACGGUCAUAGGCCAUGGAAACUAGGAGCACCAUUUCGCUGCCAGUGAAGAAAUGAACAAAGAAAAUCUGGGCCGGGCAGGCAACAAAAGAAAUAGUCUUGCGCUCAACCAGAAAGUCUGUAAUCGUUUUAAGGGUA [A78G U87A A129G] | 0.17 |
| GUUAACGGUCAUAGGCCAUGGAAACUAGGAGCACCAUUUCGCUGCCAGUGAAGAAAUGAACAAAGAAAAUCUGGGCCUGGCAGGCAUCAAAAGACAUAGUCUUGCGCUCGACCAGAAAGUCUGUAAUCAUUUUAAGGGUA [A78U A95C A110G] | 0.01 |
| GUUAACGGUCAUAGGCCAUGGAAACUAGGAGCACCAUUUCGCUGCCAGUGAAGAAAUGAACAAAGAAAAUCUGGGCCGGGCAGGCAUCAAAAGAAAUAGUCUUGCGCUCAACCAGAAAGUCAGUAAUCAUUUUAGGGGUA [A78G U122A A135G] | 0.17 |
| GUUAACGGUCAUAGGCCAUGGAAACUAGGAGCACCAUUUCGCUGCCAGUGAAGAAAUGAACAAAGAAAAUCUGGGCCAGGCGGGCAUCAUAAGAAAUAGUCUUGCGCUCAACCAGGAAGUCUGUAAUCAUUUUGAGGGUA [A82G A90U A116G A134G] | 0.28 |
| GUUAACGGUCAUAGGCCAUGGAAACUAGGAGCACCAUUUCGCUGCCAGUGAAGAAAUGAACAAAGAAAAUCUGGGCCAGGCCGGCAUCAAAAGAAAUCGUCUUGCGCACAACCAGAAAGUCUGUAAUCAUUUUAAGGGUA [A82C A98C U108A] | 0.01 |
| GUUAACGGUCAUAGGCCAUGGAAACUAGGAGCACCAUUUCGCUGCCAGUGAAGAAAUGAACAAAGAAAAUCUGGGCCUGGCAGGCAUCAGAAGAAAUAGUCUUGCGCCCAGCCAGAAAGUCUGUAAUCAUUCUAAGGGAA [A78U A90G U108C A111G U132C U139A] | 0 |
